The least precise scores are not listed. The source holds two more conditions with little spread; they are left out. In variant names, del marks residues removed and ins residues inserted between the two positions. For some assays here: How much ogerin was present is not stated here.

Sequences and labels used below:
B1: GPR68, Q15743 (parent)
chain: MGNITADNSSMSCTIDHTIHQTLAPVVYVTVLVVGFPANCLSLYFGYLQIKARNELGVYLCNLTVADLFYICSLPFWLQYVLQHDNWSHGDLSCQVCGILLYENIYISVGFLCCISVDRYLAVAHPFRFHQFRTLKAAVGVSVVIWAKELLTSIYFLMHEEVIEDENQHRVCFEHYPIQAWQRAINYYRFLVGFLFPICLLLASYQGILRAVRRSHGTQKSRKDQIQRLVLSTVVIFLACFLPYHVLLLVRSVWEASCDFAKGVFNAYHFSLLLTSFNCVADPVLYCFVSETTHRDLARLRGACLAFLTCSRTGRAREAYPLGAPEASGKSGAQGEEPELLTKLHPAFQTPNSPGSGGFPTGRLA

The variants in series [1] derive from B1. Kind of series: cAMP reporter score (Enrich2 score, wild type = 0); higher = more signal; HEK293T, FACS bins.
Series [2] covers variants of B1. Description: surface expression score (Enrich2 score, wild type = 0); higher = more signal; HEK293T, FACS bins.

As for E103Y, the cAMP reporter score in series [1] (pH 5.5) is -1.43; in series [1] (pH 6), 0.181; in series [1] (pH 6, modulator: ogerin) it was -1.31; in series [1] (pH 6.5, modulator: ogerin), -1.19. Further, in series [2], the surface expression score stood at 0.343.
For the variant E103P, the cAMP reporter score is -0.078 in series [1] (pH 5.5) and -0.767 in series [1] (pH 6, modulator: ogerin). In addition, the surface expression score in series [2] is -1.39.
In the case of E103L, the cAMP reporter score is -1.03 in series [1] (pH 5.5); 0.115 in series [1] (pH 6); -0.609 in series [1] (pH 6, modulator: ogerin); -1.66 in series [1] (pH 6.5, modulator: ogerin). Besides, the surface expression score in series [2] was found to be 1.5.
In the same order, the values of E103T are -0.171, -0.275, -1.46, 0.406 and 2.47.
In the same order, the values of E103M are -1.2, -0.963, -1.4, -1.8 and 1.14.
In the same order, the values of E103V are -1.04, -1.33, -0.377, -1.27 and 3.7.
With E103I, the cAMP reporter score in series [1] (pH 5.5) was -0.307; in series [1] (pH 6), -0.472; in series [1] (pH 6, modulator: ogerin), -0.987; in series [1] (pH 6.5, modulator: ogerin), -1.2. In addition, in series [2], the surface expression score was determined as 1.39.
Consider E103H, for which the cAMP reporter score in series [1] (pH 5.5) was 0.031; in series [1] (pH 6, modulator: ogerin) it was 1.44; in series [1] (pH 6.5, modulator: ogerin) it was 3.75. The surface expression score in series [2] was 0.414.
Turning to E103F, the cAMP reporter score in series [1] (pH 5.5) is -1.3; in series [1] (pH 6), -1.2; in series [1] (pH 6, modulator: ogerin), -1.09; in series [1] (pH 6.5, modulator: ogerin) it was -1.06. Also, in series [2], the surface expression score is 1.6.
Take E103W: the cAMP reporter score is -1.42 in series [1] (pH 5.5); -0.781 in series [1] (pH 6); -1.13 in series [1] (pH 6, modulator: ogerin); -1.69 in series [1] (pH 6.5, modulator: ogerin). Moreover, the surface expression score in series [2] came out at 1.07.
E103Q: the cAMP reporter score in series [1] (pH 5.5) is -0.082; in series [1] (pH 6, modulator: ogerin), -0.119; in series [1] (pH 6.5, modulator: ogerin), 3.32.
Consider E103G, for which the cAMP reporter score was -1.4 in series [1] (pH 5.5); -0.999 in series [1] (pH 6); -1.53 in series [1] (pH 6, modulator: ogerin); -1.56 in series [1] (pH 6.5, modulator: ogerin). The surface expression score in series [2] is 0.184.
As to H89_G90del, the cAMP reporter score was -1.2 in series [1] (pH 5.5); -0.715 in series [1] (pH 6); -0.978 in series [1] (pH 6, modulator: ogerin); -0.802 in series [1] (pH 6.5, modulator: ogerin). Besides, the surface expression score in series [2] was -0.314.
As for C94_V96del, the cAMP reporter score was -1.08 in series [1] (pH 5.5); -0.589 in series [1] (pH 6); -0.644 in series [1] (pH 6, modulator: ogerin); -0.796 in series [1] (pH 6.5, modulator: ogerin).
In the same order, the values of Y102_E103insG are -1.44, -2.41, -1.74 and -2.27.
On to Y102N, for which the cAMP reporter score was -1.51 in series [1] (pH 5.5); -2.4 in series [1] (pH 6, modulator: ogerin); -1.17 in series [1] (pH 6.5, modulator: ogerin). Also, the surface expression score in series [2] stood at 1.75.
Turning to Y102F, the cAMP reporter score in series [1] (pH 5.5) is -1.07; in series [1] (pH 6, modulator: ogerin) it was -1.13; in series [1] (pH 6.5, modulator: ogerin), -0.647. The surface expression score in series [2] was found to be 1.28.
Y102L: the cAMP reporter score is -1.69 in series [1] (pH 5.5); -1.64 in series [1] (pH 6); -0.924 in series [1] (pH 6, modulator: ogerin); -1.4 in series [1] (pH 6.5, modulator: ogerin). Further, in series [2], the surface expression score was -0.293.
In the same order, the values of Y102M are -1.47, -1.22, -1.63, -1.79 and -0.109.
In the same order, the values of Y102I are -1.28, -0.31, -0.698, 0.003 and 1.77.
Regarding Y102H, the cAMP reporter score is -1.66 in series [1] (pH 5.5); -0.064 in series [1] (pH 6); -0.374 in series [1] (pH 6, modulator: ogerin); -0.99 in series [1] (pH 6.5, modulator: ogerin). Further, in series [2], the surface expression score is 1.62.
In the case of Y102V, the cAMP reporter score in series [1] (pH 5.5) is -0.754; in series [1] (pH 6, modulator: ogerin) it was -1.99; in series [1] (pH 6.5, modulator: ogerin) it was -0.736. In series [2], the surface expression score is -0.047.
Turning to Y102C, the cAMP reporter score in series [1] (pH 5.5) was -1.14; in series [1] (pH 6, modulator: ogerin), -0.668; in series [1] (pH 6.5, modulator: ogerin) it was 0.837.
Regarding Y102R, the cAMP reporter score in series [1] (pH 5.5) was -2.02; in series [1] (pH 6), -1.31; in series [1] (pH 6, modulator: ogerin), -1.49; in series [1] (pH 6.5, modulator: ogerin), -1.25. The surface expression score in series [2] is 0.606.
Regarding Y102Q, the cAMP reporter score in series [1] (pH 5.5) is -1.58; in series [1] (pH 6, modulator: ogerin), -1.39. Further, the surface expression score in series [2] is 2.48.
As for Y102S, the cAMP reporter score is -0.561 in series [1] (pH 5.5); -0.516 in series [1] (pH 6); -1.05 in series [1] (pH 6, modulator: ogerin); -1.36 in series [1] (pH 6.5, modulator: ogerin). The surface expression score in series [2] is 1.55.
On to Y102A, for which the cAMP reporter score in series [1] (pH 5.5) is -0.917; in series [1] (pH 6), -0.614; in series [1] (pH 6, modulator: ogerin) it was -1.65; in series [1] (pH 6.5, modulator: ogerin), -0.877. Also, in series [2], the surface expression score was 0.623.
With Y102P, the cAMP reporter score in series [1] (pH 5.5) was -1.77; in series [1] (pH 6, modulator: ogerin), -3.27; in series [1] (pH 6.5, modulator: ogerin) it was -2.83. Also, the surface expression score in series [2] is -0.151.
For Y102K, the cAMP reporter score in series [1] (pH 5.5) is -1.79; in series [1] (pH 6), -0.632; in series [1] (pH 6, modulator: ogerin), -1.74; in series [1] (pH 6.5, modulator: ogerin), -1.51. Further, the surface expression score in series [2] amounted to 2.11.
Regarding Y102G, the cAMP reporter score in series [1] (pH 5.5) is -1.31. Besides, the surface expression score in series [2] is -1.18.
For Y102D, the cAMP reporter score in series [1] (pH 5.5) is -0.906; in series [1] (pH 6) it was -0.103; in series [1] (pH 6, modulator: ogerin), -1.3; in series [1] (pH 6.5, modulator: ogerin), -0.738. Also, the surface expression score in series [2] was -0.692.
Consider L100_L101insGSG, for which the cAMP reporter score in series [1] (pH 5.5) is -3.4; in series [1] (pH 6), -0.532; in series [1] (pH 6, modulator: ogerin) it was -1.41; in series [1] (pH 6.5, modulator: ogerin), -1.09. The surface expression score in series [2] is -1.29.
As for S93_C94del, the cAMP reporter score in series [1] (pH 5.5) was -1.63; in series [1] (pH 6, modulator: ogerin) it was -1.73; in series [1] (pH 6.5, modulator: ogerin) it was -1.46. For the same variant, in series [2], the surface expression score is -2.33.

For the origin of these results see the GPR68 mutational scans of Howard et al. (2025).
